Target: T1, in vitro translated [35S]-labeled Ldb2 (mouse, UniProt O55203 1-373, [35S]-methionine label)
T1 construct: Made with the TNT coupled transcription/translation kit; also called Ldb2 FL; CLIM1
T1 sequence (looked up): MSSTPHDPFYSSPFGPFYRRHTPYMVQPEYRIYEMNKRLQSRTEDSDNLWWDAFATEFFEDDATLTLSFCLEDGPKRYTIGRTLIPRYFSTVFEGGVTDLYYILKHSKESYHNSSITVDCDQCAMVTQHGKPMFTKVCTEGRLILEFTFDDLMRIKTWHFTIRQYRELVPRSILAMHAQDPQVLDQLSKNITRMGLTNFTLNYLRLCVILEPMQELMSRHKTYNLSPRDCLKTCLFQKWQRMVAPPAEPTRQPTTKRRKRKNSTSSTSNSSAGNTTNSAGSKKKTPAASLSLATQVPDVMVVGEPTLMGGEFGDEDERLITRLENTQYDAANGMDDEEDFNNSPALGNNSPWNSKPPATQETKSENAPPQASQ
Test: GST pulldown of [35S]-labeled in vitro translated Ldb2
Experimental: Interactions of Ldbs and SLK were confirmed by direct binding assays. In vitro translated Ldbs labeled with [35S]-methionine was incubated with various GST-SLK fusion protein deletions (FIGS. 16c and d). […] Ldb1 was also able to bind directly to the SLK-ATH domain in vitro in a manner that was indistinguishable from Ldb2 (not shown).

B1: GST alone (other)
chain: not shown
notes: Control in the pulldown assays
B1: no binding.
